Measured values reported in the RNAGym collection of RNA variant scans (doi:10.1093/nar/gkz1192).
Read counts are not given, so values of variants with three or more changes are uncertain.

B1: CPEB3 Ribozyme (parent)
chain: UAACAGGGGGCCACAGCAGAAGCGUUCACGUCGCAGCCCCUGUCAGAUUCUGGUGAAUCUGCGAAUUCUGCUGUAUAUCUC

Variants of: B1
Test: self-cleavage, relative activity (ratio to wild type); higher = more cleavage; in vitro, sequencing
Procedure, shortened: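 Relative activity was defined as the cleaved/total read fraction for a variant divided by the same fraction for the unmutated ribozyme. CPEB3 self-cleaving ribozyme libraries were made by rounds of error-prone PCR, barcoded, and transcribed in vitro with T7 RNA polymerase for 5 hours at 37°C, and cleavage ran through transcription plus a 15 min DNase I step before EDTA. Illumina sequencing of template-switched reverse transcripts gave the reads, and DNA sequencing mapped the barcodes. Averages come from three batches, using variants with at least 5 reads.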

Variant	self-cleavage
U25C A28G A45G C68U	0.27
U25A U48G U54G U80G	0.04
U25C A45U G70A	0.15
U25C A45G G63A U72A U78C U80C	0.07
U25C A35G U49A A64G G70C	0.05
U25C C38U A56G A57G A77G U78C	0.06
U25C A28U C40U A65G U80C	0.18
U25A U72C U80C	0.05
U25C G52A G63U	0.22
U25C A47G G52A	0.11
U25A U26A A45U C79A	0.06
U25C A45G C79A	0.32
U25C C34A C50G U58G U60A	0.09
U25A U26C A45U A65G A77U	0.09
U25C A28G U41G U51G U76A	0.07
U25C A35U C38A U43G A64G U67C U78G	0.19
U25C A28U C71U	0.09
U25C C40A G42U	0.11
U25C C34G G61A U78A	0
U25C A35G U41A U72C	0.1
U25C A47G U48C U49C U54C U76A	0
U25C U26C A45G A47G U72G U80C	0.19
U25A U49A U60C	0.14
U25C C38A G63A U66C	0.1

Variant	self-cleavage
U25C C29U U31C U49C U58C U72C	0.09
U25A U54C C71U	0.12
U25C A47G A57G	0.24
U25A U51C A65G	0.26
U25A U74A A77U	0.25
U25C A28U U66C C71U	0.08
U25A U41G U51C	0.07
U25A U26C U41C U76C A77U	0.21
U25C A35U C44U U74A	0.36
U25C A35U A45G A65G	0.18
U25A U31C U54C U80A	0.09
U25C C32A C44A U51C	0.06
U25C A28G U69A	0.26
U25C G52C A77G	0.21
U25C C34U U41C U67C U69A	0.05
U25A U26C U43A U72G U80C	0.23
U25A G46U U66C	0.12
U25C A57G U69C A77U	0.03
U25C C27U A47U	0.15
U25A U31A U69C	0.14
U25A U26C U49C U66C	0
U25A U69A U78C	0.39
U25C U26C C40U U43C A45U	0.09
U25C A45C A47G U67C	0.23

Variant	self-cleavage
U25C C38A G61A U69C	0.08
U25C A65G U66C	0.25
U25C A28U U31A C37U U54C	0.09
U25C A57U A64U C68A	0.28
U25C C27U U76A U78A	0.27
U25C A57G C81G	0.2
U25A U26C U41C A56G A65G	0.17
U25A U51A U74C U80A	0.09
U25C A56U A65G	0.24
U25A U41C U48C U49G	0.17
U25C C39U G42A A47G U74A	0.11
U25C A56U U60C A64U	0.11
U25C G73A A75G	0.09
U25C A57G U60C A64U	0.17
U25C C29A A35C C39A U43C G61C G70C	0.05
U25C A45G U58A C62U	0.12
U25C C34U U66C C71A U72A U80A	0.05
U25C G61A U74C U78A	0.06
U25C G61A A64U U67C A77U	0.05
U25C C50U U78C	0.21
U25C A35U U41C	0.12
U25C A57G U60A	0.09
U25C A57G U60C	0.13
U25C C29U U69A	0.2

Variant	self-cleavage
U25C A56U U60A U66G U78G	0.06
U25A U43C U80C	0.33
U25C U26C A28G C40G	0.22
U25C C32U G33U A35U U41C C44U A47G	0.04
U25A U31C U66C	0.12
U25C A35G A57C C68U U69C	0.08
U25C G36A U41A A45C A56G A75U	0.05
U25C A47U A56U U80C	0.5
U25A U41A U43C U78A	0.19
U25C A45G G52A	0.5
U25C C27A G52A	0.47
U25C U26A A77C	0.22
U25C A35U U43C U54C C62U	0.21
U25C C37U U80C	0.32
U25A U51A U74C	0.28
U25C C32U U48C U54C A57G C68G	0.05
U25C A35U U43C C68A U78C	0.06
U25C A64C U80C	0.24
U25C A45G U54C	0.21
U25C G33C A35G U49C U60C U69C	0.13
U25C C27A G33A U41A U74A	0.13
U25C G36C C37U U58C U80C	0.07
U25C C27A U31C C32U C44G	0.13
U25C G30A U51C U74A A77C	0.43

Variant	self-cleavage
U25C G33A U60C U66C	0.11
U25C A28U U60A U72A	0.16
U25C A35U U43C	0.14
U25C C62U U80C	0.26
U25A U48C A56G U67C	0.1
U25A U26C A57G U69C	0.08
U25C G33A A45G A57C A65U U72A U80C	0.07
U25C U26A A35G	0.61
U25C A35G A65G U69G	0.09
U25C A35U A45G U60A	0.16
U25C U26C U31C U51G	0.27
U25C C44G U48C U72C A75U A77C	0.19
U25C A35G U54A A56U A77U	0.12
U25C A35G U51A	0.38
U25C U26C A35C U49A U72C U80A	0.1
U25C C34A U58C	0.13
U25C G33A A35U	0.08
U25C C32A C38U	0.1
U25C G30A A45U U48C U72A A77G C79U	0.1
U25C A45U A64U U66C U67A U72A A75G	0.03
U25C A35G U43A A64G	0.34
U25C A28G U48C A56U U72A A75G	0.07
U25C G33A U72C	0.12
U25C C32U G36U	0.09

Variant	self-cleavage
U25A U26C G36A A64G U72A	0.13
U25C A35G U69A A75G	0.11
U25A U31C U41A U80C	0.3
U25C A57G U58A U80C	0.21
U25C A28U U31A G73U	0.09
U25A U26A U49C U67C	0.06
U25C G30A C40A U43A U72A	0.09
U25C U26A A45C U51C U69C U72C	0.19
U25C U26A A28U U58C A65G U66C	0.1
U25C C32A A56G C71U U80A	0.06
U25C C50U U69C U78C	0.35
U25C A28G A56G A57G	0.17
U25C G46C U60C	0.08
U25C G36C U41A	0.4
U25C A35G U43C U78C	0.22
U25C C32A U41A	0.48
U25C A47G U72C	0.24
U25C G33U U41C	0.2
U25C A28G A57G	0.35
U25C C27A U31C A45G U54C U67A C79A	0.04
U25C A47U U48C A57G	0.09
U25C G33A A35G A45G U49C	0.05
U25A G46C U69C U80A	0.08
U25C A28G U60C U78C	0.1

Variant	self-cleavage
U25C A47G U54C	0.15
U25C A47C U54A U66C	0.7
U25C C68U U69C U72C	0.05
U25C A47G U48C U67C G70A U78C	0.12
U25C A57G A64U U69C U80C	0.12
U25C C39A U43C U54C	0.14
U25C G55U A57G A64G U69C C71U	0.15
U25C C40U U54G A56G	0.09
U25C C34G A45G U69C	0.14
U25A U26G U41A A47G C50U C71U	0.05
U25C A56G A57G A65U U66C	0.07
U25C A35C U54C	0.31
U25C A45U U49G C50A U51C U60C A64U	0.1
U25C U26C A28U	0.19
U25C G33A A35G U41A	0.26
U25C A35G U43A U58C U69C	0.19
U25C A45U U69C A75G	0.07
U25C A47U A56G A64U	0.16
U25C A47G U51A U78A	0.16
U25C A35G A57G G63A U69A	0.11
U25C A28C U41C U49C	0.06
U25C C39A C50U U60C	0.12
U25A U58C U67A	0.15
